Measurements reported in ChEMBL document CHEMBL4888484, “Replenishing the malaria drug discovery pipeline: Screening and hit evaluation of the MMV Hit Generation Library 1 (HGL1) against asexual blood stage Plasmodium falciparum ,using a nano luciferase reporter read-out” (2022).
About 540 (0.36%) of roughly 150,000 compounds showed an effect of 50% or more. The list shows a part of the results.

Test system: Plasmodium falciparum
Assay: Primary screen in NF54 nanoGlo assay, in single point, at 2uM, 72h; a lower Z score goes with more inhibition
Type: functional, Erythrocyte
Conditions: timepoint 72 hour

Structure (SMILES)	% Inhibition [%]	Z score
CCN(CC)C(=O)c1coc(COc2ccc3c(c2)[C@H](c2cccc(F)c2)N(C(=O)CC(C)C)CC3)n1	-2	0.18
Cc1cc(S(=O)(=O)N2C[C@@H]3CCC[C@@H](C3)C2)c(Cl)cc1F	-9	1.52
COc1ccc(N2C(=O)c3cc4ccccc4n3C[C@@]2(C)C(=O)NC2CCCCC2)cc1	2	-0.3
O=C(Nc1cccnc1)c1cccc(S(=O)(=O)N[C@H]2CCCNC2=O)c1	-17	1.78
CCN(CCO)C(=O)c1cnc(Cc2c(Cl)cccc2Cl)nc1O	-17	2.34
Cc1ccsc1-c1nc(CN2[C@@H]3CC[C@H]2C[C@@H](O)C3)c(C)o1	3	-0.25
C=CCNC(=O)c1ccc(-c2ccc3c(c2)OCCO3)o1	-3	0.66
COC(=O)CCN1CC[C@H](NC(=O)c2cc(F)ccc2O)C1=O	3	-0.29
COC(=O)[C@@H](C)CS(=O)(=O)NCc1nc(C)cs1	-3	0.35
c1cn(Cc2noc(C3CC3)n2)c(CN2CCOCC2)n1	4	-0.48
Cc1cc(NC(=O)N2C[C@H](Cc3ccccc3)[C@@H](O)C2)no1	-10	1.01
C#CCCC1(CCC(=O)N2CCCC[C@H]2c2ccc(CC)o2)N=N1	-4	0.5
CNc1nc(CN(C)Cc2snnc2C)cs1	-2	0.21
N#Cc1c2c(c3nncn3c1Nc1ccc(Cl)cc1)CCCC2	5	-0.55
CCc1cccc2c(-c3csc(CCN4CCOC4=O)n3)c[nH]c12	-11	1.52
CN1CCC(N(C)C(=O)c2ccccc2NC2CCCCC2)CC1	6	-1.03
Cn1ccnc1[C@@]1(CNC(=O)c2ccc(-c3cc[nH]n3)s2)NC(=O)NC1=O	-28	3.01
Cc1n[nH]c(C)c1CCNC(=O)c1cc(CO)ccn1	6	-1.24
Cc1ccc(C(=O)N2CCC(COc3ccccc3C(=O)NC3CC3)CC2)c(C)c1	-10	1.98
Cn1nc(NC(=O)c2ccccc2)c2c1CCN(C(=O)C1CCCCC1)C2	-22	1.98
O=C(C[C@H]1CCOC1)N1CCCN(C2CCCCC2)CC1	-12	1.56
CCc1ccc2ncn(CC3CCOCC3)c(=O)c2c1	-2	0.32

Structure (SMILES)	% Inhibition [%]	Z score
Cn1ncc(NC(=O)Cn2ccc3cc(-c4ccc(CO)cc4)ccc32)n1	-12	2.07
Cc1nccc(CCC(=O)Nc2nc(C(C)C)cs2)n1	-2	0.42
Cn1ccnc1-c1nccn1CCS(C)(=O)=O	-19	2.21
CCn1cnnc1-c1nn(C)c2c1CN(C(=O)Cc1ccccc1F)CC2	-12	1.77
C[C@@H](c1nc(C(C)(C)C)no1)N1CCN(c2nccs2)CC1	-12	1.75
CCCN1CCCCC1C(=O)NC1CCc2nccn2C1 (stereo not given)	-1	0.28
COc1ccc(CN2CC[C@@H]2CNC(=O)c2cn(CC(N)=O)nn2)cc1	-3	0.63
O=C(NCCc1csc(=O)[nH]1)c1nc2ccccc2cc1C1CC1	-4	0.56
O=C(c1ccc(Cl)o1)N(Cc1ccco1)c1ccccn1	-12	1.89
CCCc1ccccc1NC(=O)NC1CCS(=O)(=O)CC1	-12	1.97
CC(C)Cc1nsc(N[C@@H](CCCO)c2ccccc2)n1	-10	1.11
CCOC(=O)C[C@H](Nc1nc(N2CCOCC2)nc(N2CCOCC2)n1)c1ccccc1Cl	2	-0.24
O=C(NCc1cccc(-c2ncc[nH]2)c1)[C@H]1CCCC[C@@H]1C(F)(F)F	-4	0.71
CN(CC(C)(CO)CO)C(=O)c1ccsc1	6	-0.9
Nc1ncc(CCC(=O)N[C@H]2CCN(C3CCCCC3)C2=O)s1	0	0.06
Cc1nc(CCN2CCC(c3cc[nH]n3)CC2)cs1	-3	0.61
O=C(CN1CCN(Cc2nnsc2Cl)CC1)N1CCCc2ccccc21	-16	1.84
COc1ccc(CN(CCN2CCOCC2)C(=O)c2cc3cc(F)ccc3[nH]2)cc1OC	-7	1.01
Cc1ccc(C(=O)NC[C@H]2CCS(=O)(=O)C2)o1	-2	0.31
c1cnn(-c2cncc(N3CCC4(CCCCCC4)C3)n2)c1	5	-0.78
Cc1ccc(C2C(=O)N(C3CCCC(C)C3C)CC(=O)N2CCc2ccccc2)cc1 (stereo not given)	-1	0.07
O=C(Nc1csc(-c2ccncc2)n1)[C@@H]1CCCO1	-10	1.79

Structure (SMILES)	% Inhibition [%]	Z score
CC(C)n1ncnc1-c1ccc(C(=O)N2CCC[C@H](C(N)=O)C2)cc1	-4	0.69
CC(C)(C)OC(=O)N[C@H]1CN(C(=O)CO)C[C@@H]1c1cccc(F)c1	-4	0.49
O=C1NC2(CCN(C(=O)c3cnccc3C(F)(F)F)CC2)CO1	-8	1.1
O=C(C(O)c1ccccc1)N1N=C(C2CCCCC2)CC1(O)C(F)(F)F (stereo not given)	16	-1.86
O=C(c1ccco1)N1CC[C@H](OCc2ccccc2)C1	-9	1.03
Cc1cc(N2CCOCC2)c(F)cc1[C@](C)(O)C#Cc1ccccc1	-7	0.97
O=C(c1cnn2c1OCCC2)N1CCCCCCC1	-8	1.65
COc1cccc(NC(=O)Nc2cnsn2)c1	0	-0.07
C[C@@H]1CN(C(=O)c2nc3ccc(Cl)cn3c2CNCCc2ccccc2F)C[C@H](C)O1	-11	1.88
COc1cc(-c2nn(CNc3ccccc3)c(=S)o2)cc(OC)c1OC	7	-0.82
CC1=NN(c2ccccc2)C(=O)C12Cc1ccc(Cl)cc1N1CCCCC12 (stereo not given)	8	-1.22
CC(C)Cn1ccc(C(=O)N2C[C@@H](C)Cn3ncnc32)n1	-2	0.34
CC(=O)NCC(=O)Nc1c(C)cnn1C1CCCC1	-6	1.03
CCCCn1nc(CC2CCN(C)CC2)nc1-c1cnc(C)cn1	1	-0.14
O=C(NCCC(=O)N1CCCCCC1)c1ccc(=O)n(-c2ccccc2F)n1	0	-0.05
COc1ccc(CN2C(=O)C3Cc4ccccc4CN3CC2(C)C(=O)NC2CCCCCC2)cc1 (stereo not given)	-4	0.41
CN(Cc1ccon1)[C@H]1CCN(C(C)(C)C)C1=O	-6	0.78
CN(C)c1ccnc(NC(=O)NC(C)(C)C(=O)NCC(C)(C)C)n1	-12	2.29
Cc1ccc(OCC(=O)N2CC3CC2CO3)cc1 (stereo not given)	-20	2.37
CCOc1ccc(C(=O)N2CCCN(c3ccc(=O)n(-c4ccc(C)c(C)c4)n3)CC2)cc1OCC	19	-2.16
O=C(OCc1ccccc1)N1CCN(C(=O)c2cccc3[nH]c(CO)nc23)CC1	3	-0.6
Oc1c(Cl)cc(Cl)cc1CNc1cnc2ccccc2c1	0	0.02

Structure (SMILES)	% Inhibition [%]	Z score
CCOc1ccccc1NC(=O)CS(=O)(=O)CC(=O)Nc1ccccc1	1	-0.13
CCC(CC)C(=O)N1C[C@@H]2OCC(=O)N(CC3CC3)[C@@H]2C1	-6	0.96
O=C(NC[C@@H](c1ccsc1)N1CCCC1)c1cccc(Cl)c1	20	-2.31
CCN(C(=O)[C@H]1CCCN(C2CCN(Cc3ccncc3)CC2)C1)C(C)C	-8	1.71
Cc1oc(-c2ccc(C(=O)NCCN(C)C)cc2)nc1CN1CCc2ccccc21	-14	1.84
CCOc1ccc(N2C(=O)C[C@H](NC3CCN(c4ncc(C(F)(F)F)cc4Cl)CC3)C2=O)cc1	4	-0.43
Cc1nc(-c2csc(S(=O)(=O)N3CCC[C@H](C(=O)N4CCN(C)CC4)C3)c2)no1	2	-0.47
CCOC(=O)CNS(=O)(=O)CC1CCCCC1	-11	1.63
COCC1=CCN(C(=O)c2c(O)c(C)nc3ccccc23)CC1	-2	0.24
Cc1nc2nccnc2cc1Br	10	-1.12
Cc1cc(C(=O)Cn2nnc3ccccc3c2=O)c(C)n1[C@H]1CCS(=O)(=O)C1	-3	0.47
O=C(CCc1ccc(F)cc1)NC[C@H]1CCCCCN1	-7	1.21
Nc1ncncc1CNC(=O)c1c(F)cc(C(F)(F)F)cc1F	-12	1.45
O=S(=O)(CCc1cccs1)N[C@H]1CCN(CC2CCCC2)C1	-2	0.24
Cn1cnc(C(=O)N2CCC(OCc3ccc(Cl)c(Cl)c3)CC2)cc1=O	3	-0.45
CCOc1ccc(N2C[C@@H](C(=O)NCCOc3ccccc3)CC2=O)cc1	6	-0.94
CC(=O)c1c(C)[nH]c(C(=O)N2CCCn3nc(C)cc32)c1C	-3	0.46
CS(=O)(=O)CC1(CNc2ncccc2F)CC1	2	-0.21
CC(C)C(=O)N1CCC(NCc2c[nH]nc2-c2cccs2)CC1	-12	2.08
